# In all, about 310,000 compounds went through this assay and about 14,000 (4.5%) showed an effect of 50% or more. The effect is printed as a negative number. Some of the results follow.
# Biological target: human ether-à-go-go-related gene (hERG) potassium channel (human, UniProt Q12809)
# Test: primary screen, population patch clamp on CHO cells stably expressing hERG
# 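Further: peak tail current of the secondary pulse compared with the same well before compound.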
# human ether-à-go-go-related gene (hERG) potassium channel, sequence (Q12809 whole entry, looked up): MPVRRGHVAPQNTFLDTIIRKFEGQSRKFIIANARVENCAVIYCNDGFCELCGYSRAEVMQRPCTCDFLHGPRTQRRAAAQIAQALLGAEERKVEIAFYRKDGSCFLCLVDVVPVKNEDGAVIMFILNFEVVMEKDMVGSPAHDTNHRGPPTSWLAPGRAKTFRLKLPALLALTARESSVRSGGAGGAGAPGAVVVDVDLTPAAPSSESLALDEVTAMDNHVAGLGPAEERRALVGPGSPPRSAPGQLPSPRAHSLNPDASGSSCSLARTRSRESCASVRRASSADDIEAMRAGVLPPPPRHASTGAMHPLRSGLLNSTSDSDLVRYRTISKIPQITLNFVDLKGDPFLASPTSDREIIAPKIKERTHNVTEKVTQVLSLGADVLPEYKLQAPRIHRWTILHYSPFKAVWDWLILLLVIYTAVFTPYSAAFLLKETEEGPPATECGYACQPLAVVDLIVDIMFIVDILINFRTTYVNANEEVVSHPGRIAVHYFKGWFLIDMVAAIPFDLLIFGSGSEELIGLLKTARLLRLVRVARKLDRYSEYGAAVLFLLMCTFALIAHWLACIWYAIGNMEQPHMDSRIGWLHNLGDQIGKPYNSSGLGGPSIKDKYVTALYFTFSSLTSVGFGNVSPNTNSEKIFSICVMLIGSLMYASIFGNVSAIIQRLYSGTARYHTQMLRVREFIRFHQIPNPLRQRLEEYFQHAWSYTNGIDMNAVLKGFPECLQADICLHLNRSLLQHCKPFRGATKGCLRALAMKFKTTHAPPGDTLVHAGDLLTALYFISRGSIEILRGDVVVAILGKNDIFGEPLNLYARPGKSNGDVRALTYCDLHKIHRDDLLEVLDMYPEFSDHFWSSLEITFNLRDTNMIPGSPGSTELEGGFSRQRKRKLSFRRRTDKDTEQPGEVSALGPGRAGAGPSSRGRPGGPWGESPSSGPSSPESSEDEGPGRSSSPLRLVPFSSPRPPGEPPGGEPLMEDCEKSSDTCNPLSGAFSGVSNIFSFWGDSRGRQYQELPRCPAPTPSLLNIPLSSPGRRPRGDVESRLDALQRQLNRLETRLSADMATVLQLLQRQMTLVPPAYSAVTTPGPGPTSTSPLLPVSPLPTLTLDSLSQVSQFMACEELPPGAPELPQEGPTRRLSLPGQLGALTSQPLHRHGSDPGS
row,SMILES,"hERG current change (%, negative = inhibition) at 10uM [%]"
1,CC(C(=O)Nc1nnc(C2CC2)s1)N1C(=O)C2CC=CCC2C1=O (stereo not shown),-2.62
2,CC(=O)Nc1nnc(SCC(=O)NC2CC2)s1,13.6
3,COc1ccc(Cc2nc3c4c(ncn3n2)Oc2ccc3ccccc3c2C4c2ccc(OC)c(OC)c2)cc1 (stereo not shown),8.46
4,Cc1ccc2oc(-c3ccc(C)c(NC(=S)NC(=O)c4cccs4)c3)nc2c1,27.6
5,CN(CC(=O)Nc1cccc(F)c1)C(=O)CCCNC(=O)c1ccc(Cl)cc1,-36.7
6,O=C(NC1CCN(S(=O)(=O)c2cccc(Cl)c2)CC1)C1CCCCC1,14.5
7,CCOC(=O)c1c(NC(=O)c2cc(C(C)C)on2)sc(C(C)=O)c1C,16.7
8,CCN1CCN(S(=O)(=O)c2ccc(OC)c3ccccc23)CC1,-10.3
9,Cn1ncc([N+](=O)[O-])c1C(=O)Nc1ccc2c(c1)OCCO2,7.62
10,COc1ccccc1NC(=O)COc1ccc2c(c1)OCO2,11.1
11,O=C1c2ccc(Br)cc2C(=O)N1c1ccc(Cl)cn1,3.66
12,COC(=O)C(C)n1cnc2c(nnn2-c2cccc(Cl)c2)c1=O (stereo not shown),-13.4
13,CCN(CC)S(=O)(=O)c1cccc(C(=O)N/N=C/c2ccc(N3CCOCC3)cc2)c1,21.7
14,O=C(NCc1ccc(F)cc1)C(=O)NCC1OCCN1S(=O)(=O)c1ccc2c(c1)OCCO2 (stereo not shown),-14.1
15,O=C(c1ccccc1)N1CCC(c2nc3c(nnn3Cc3ccco3)c(=O)[nH]2)CC1,-32.2
16,COc1cccc(CNC(=O)Cn2ccc3cc(S(=O)(=O)N4CCCC4)ccc32)c1OC,9.36
17,COCCCNCCOCCOc1ccc(Cl)cc1C(C)(C)C.O=C(O)C(=O)O,-50.6
18,COc1ccc(C2CN=NC23CCc2ccccc2C3=O)cc1 (stereo not shown),-16
19,CCOC(=O)C(NS(=O)(=O)c1ccc(C)cc1)(C(F)(F)F)P(=O)(OCC(C)C)OCC(C)C (stereo not shown),4.41
20,CCCCCC1CC(=O)N(Cc2ccc(Cl)cc2)C(=O)N1 (stereo not shown),-7.2
21,Cc1cc(C)c(NC2=NCCCS2)c(C)c1.Cl,8.57
22,Cc1oc2cc3oc(=O)c(CCC(=O)NCc4ccccn4)c(C)c3cc2c1C,-1.73

row,SMILES,"hERG current change (%, negative = inhibition) at 10uM [%]"
1,COc1ccc(CNCCC(c2ccc(F)cc2)c2ccc(OC)cc2)cc1 (stereo not shown),-82.3
2,COc1cccc(/C(C)=N/NC(=O)c2cc(-c3cccnc3)nc3ccccc23)c1,-7
3,Cc1c(NC(=O)c2ccc(Br)s2)c(=O)n(-c2ccccc2)n1C,14.5
4,Cc1n[nH]c(C)c1S(=O)(=O)NCCc1ccc(Cl)cc1,5
5,COc1ccc(CNC(=O)C(OC(=O)c2cccs2)C(C)C)cc1 (stereo not shown),-11.8
6,Cc1nc(N2CCOCC2)c(C#N)c2c1COC(C)(C)C2,20
7,CCCN(C(=O)CSc1nnc2ccccn12)C1CCS(=O)(=O)C1 (stereo not shown),16.6
8,COc1cccc(CNC(=O)CCC(=O)N2CC(C)Oc3ccccc32)c1OC (stereo not shown),5.25
9,O=C(NC1CCCCC1)c1ccc(COCC(F)(F)F)o1,-0.702
10,Cc1cc(C)nc(SCC(=O)Nc2ccc(S(=O)(=O)NC(C)(C)C)cc2)n1,-13.7
11,O=C(CN(CC1CCCO1)C(=O)CNS(=O)(=O)c1ccc(Cl)cc1)NCc1ccc(F)cc1 (stereo not shown),-25
12,CC1=C(C(=O)c2ccccc2)C(c2ccc(N3CCOCC3)cc2)NC(=O)N1 (stereo not shown),16
13,COc1ccccc1OCC(=O)Nc1ncc(C)s1,-6.77
14,C=CCn1c(O)c(C(CC)=Nc2ccc(C(=O)O)cc2)c(=O)[nH]c1=O,15.4
15,COc1ccccc1C1SCCN1S(=O)(=O)c1cccc(C(F)(F)F)c1 (stereo not shown),15.4
16,CCOC(=O)CNC(=S)N(Cc1ccccc1)Cc1cccs1,-17.3
17,CCC(=O)Nc1nc(OC)cc(OC)n1,6.21
18,Cc1cc(N/N=C/c2ccccc2O)nc(-c2ccccc2O)n1,14.7
19,O=C(CN1C(=O)CSc2ccccc21)Nc1ccc2c(c1)OCCO2,2.65
20,CC1CCCC(NC(=O)COC(=O)c2ccccc2[N+](=O)[O-])C1C (stereo not shown),11.4
21,O=Cc1cn(CC(=O)Nc2ccc(F)cc2)c2ccccc12,11.2
22,O=C(CSc1ccccc1)N1CCCC(N2CCN(c3ccccc3)CC2)C1 (stereo not shown),-33.7

row,SMILES,"hERG current change (%, negative = inhibition) at 10uM [%]"
1,CC1(c2ccc(OC(F)F)cc2)NC(=O)N(CC(=O)Nc2ccccc2)C1=O (stereo not shown),-51.3
2,CCOC(=O)[C@H]1[C@H]2COc3ccc(C)cc3[C@@H]2N2C(=O)c3cc(OC)c(OC)cc3NC(=O)[C@@]12C,-17.3
3,CCCCCn1cnc2sc(CC)cc2c1=O,-24.6
4,CCN(CC)S(=O)(=O)c1ccc2oc(C(=O)NC3CC3)c(C)c2c1,-7.09
5,CC(C)CCOP(N)(=O)Oc1ccccc1 (stereo not shown),9.05
6,O=C(CCCc1ccccc1)Nc1ccnn1C1CCN(Cc2ccccc2F)CC1,-49
7,Cc1c(CN2CCC(C(=O)Nc3ccc(Oc4ccccc4)nc3)CC2)cnn1C,-32.8
8,CCOC(=O)N1CCC(NC(=O)c2ccc(CS(=O)(=O)c3c(Cl)cccc3Cl)o2)CC1,-34.5
9,Cc1cc(C(=O)C(C)OC(=O)c2cnccn2)c(C)n1-c1ccccc1 (stereo not shown),-27.3
10,Cc1sc2ncnc(SCC(=O)N3CCCCC3)c2c1C,10
11,N#Cc1c(/N=C/c2ccco2)oc(-c2ccccc2)c1-c1ccccc1,9.86
12,O=C(Nc1ccccc1)Nc1ccc(Br)cc1F,10
13,Cl.N=c1ccn(Cc2c(Cl)cccc2Cl)cc1,15.3
14,O=C(CSc1nc(-c2ccco2)cc(C(F)(F)F)n1)NCCCN1CCOCC1,16.6
15,COc1ccc(Cl)cc1S(=O)(=O)n1cnc2ccccc21,3.79
16,Cc1cc(S(=O)(=O)Nc2ccc(C(=O)NCC3(N(C)C)CCCCC3)cc2)ccc1F,-49.2
17,CCOC(=O)N1CCN(C(=O)COc2cccc3c2CCN(Cc2ccc(F)cc2)C3=O)CC1,-61
18,Cc1nc([N+](=O)[O-])cn1CC(=O)c1ccc(OC(F)(F)F)cc1,15.6
19,COC(=O)Cc1cc(=O)n2[nH]c(C)nc2n1,-15.6
20,COc1ccc([N+](=O)[O-])cc1C1NN=C(c2ccccc2O)S1 (stereo not shown),11.1
21,CN(C)S(=O)(=O)c1ccc(C(=O)Nc2ccccc2C(=O)O)cc1,1.38
22,CCCCNC(=S)N/N=C/c1sccc1C,30.2

row,SMILES,"hERG current change (%, negative = inhibition) at 10uM [%]"
1,Cc1csc(NC(=O)c2ccc(S(=O)(=O)N3CCN(C)CC3)cc2)n1,-5.45
2,O=C(O)CCCCCCCCc1cn(CCc2c[nH]c3ccccc23)nn1,4.49
3,S=C(Nc1ccc(Br)cc1)NC1CCCC1,-0.909
4,CCOC(=O)c1c(N)sc2c(OC)c(Br)ccc12,19
5,COc1ccc(N2C(=NC(=O)c3ccccc3)SC3CS(=O)(=O)CC32)cc1 (stereo not shown),5.27
6,Cc1ccc(N2C(=O)c3ccc(C(=O)O)cc3C2=O)cc1C,-27.5
7,Cc1ccc(NC(=S)NNC(C)(C)C)cc1,10.1
8,O=C1CSc2nc3ccccc3n21,4.86
9,COc1ccc(C)cc1NCc1cccc(OC)c1OC,1.13
10,COc1ccc(N2CCN(CC(O)COCc3ccccc3)CC2)cc1.Cl (stereo not shown),-25.2
11,COC(=O)C1=C(C(=O)OC)[C@@H]2N(Cc3ccccc3)c3ccccc3[C@@]23C[C@@H](C(=O)OC)N(C(=O)c2cc(C)oc2C)C3=N1,-6.19
12,Cc1cccc(C)c1NC(=O)C1(C)c2cccc[n+]2CC(=O)N1Cc1cccs1.[I-] (stereo not shown),6.18
13,CC1CC1C(=O)OCC(=O)Nc1ncc(Cl)cc1Cl (stereo not shown),-4.57
14,COc1ccc(-c2c(-c3cc(OC)cc(OC)c3)n(C)c3ccc(-c4ccc(N(C)C)nc4)cc23)cc1,-1.26
15,CCOC(=O)c1c(-c2cccs2)csc1NC(=O)CN(CC)CC,10
16,Cc1ccc(S(=O)(=O)N(C)CC(=O)O/N=C(\N)c2cccc(Br)c2)cc1,13.5
17,CC1CC(c2ccccc2)n2nc(NC(=O)c3ccco3)nc2N1 (stereo not shown),24.6
18,COc1cccc(C(=O)Nc2cc(C(=O)NCc3ccc(C)cc3)ccc2N2CCC3(CC2)CC(c2cccc(Br)c2)=NO3)c1,10.9
19,C/C(O)=C(\C#N)P(=O)(c1ccccc1)c1ccccc1,11.6
20,Cc1ccc(NC(=O)CN2C(=O)S/C(=C\C(=O)Nc3ccc(Cl)cc3)C2=O)cc1,11.1
21,Cc1cc(C)c(C)c(OCC(=O)N2CCCCCC2)c1,-4.74
22,Cc1ccc(C(=O)c2oc3nc(C)cc(C)c3c2N)cc1,2.55

# From publication PMC4336329 (PLoS ONE, 2015)
